Measurements published in PubChem BioAssay AID1671194 (National Center for Advancing Translational Sciences (NCATS), 2021).
The whole screen tested about 140,000 compounds, of which about 240 (0.17%) were called active. Inconclusive results, whose numbers are uncertain, are shown with a selection of clear calls. Calls follow the shape of the dose curve; as a rule, active = well fitted inhibition curve with a large enough effect; inconclusive = small, poorly fitted or top-dose-only effect; inactive = no such curve, though single readings can be large or run the other way. A potency beside an inconclusive call is a rough fit, not a confirmed value.
Potency is read from the fitted curve at half-maximal effect; tags tell the direction and shape of the fitted curve.

Experiment: Primary qHTS assay for inhibitors of alpha-synuclein gene (SNCA) expression; also: nearly all actives have a fitted effect of over 45% in size;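 as to activity change, negative = inhibition: plate controls were DMSO cells for no effect and cell-free wells for full effect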
Settings: HEK-293 SNCA-luciferase knock-in, luminescence, 24 h; activity change, negative = inhibition: at 57.2 µM (top of the series) unless noted
For `COc1ccc(-c2cc(OC(=O)c3ccccc3C)c3c(C)oc(C)c3c(=O)c2)cc1`, the Potency was inconclusive: 7.08 µM [inhibitor, single point]. With `c1ccc(-c2ncn(CC3CCCO3)c2-c2cccc3cnccc23)cc1` (stereo not given) the Potency was inconclusive: 11.2 µM [inhibitor, partial curve]. With `CCc1ccc(C2=CC(c3cccc(C)c3)n3c(nc4ccccc43)N2)cc1` (stereo not given) the Potency was inconclusive: 17.8 µM [inhibitor, single point]. For `Cc1ccc(C(=O)N2CCCC(C(=O)N3CCC4(CC3)CC(=O)Nc3ccccc3O4)C2)cc1` (stereo not given), the “activity change, negative = inhibition” value was inactive: -1.81%. For `COc1cccc(CN2CCc3nc(C(=O)NCC4CC4)oc3CC2)c1`, the “activity change, negative = inhibition” value was inactive: 45.5% [at 87.6 µM]. With `O=C(C1CCCC1)N1CC2(CCN(C3CCCCC3)CC2)Cc2ccccc21` the “activity change, negative = inhibition” value was inactive: -21.8%. For `COc1ccc(-c2ccnc3nc(Cc4cc(F)cc(F)c4)nn23)c(F)c1`, the Potency was inconclusive: 3.16 µM [inhibitor, full curve]. In the case of `CCOc1ccc(NC(=O)Cn2c(-c3ccccc3)nc(C)cc2=O)cc1`, the Potency is reported as inconclusive: 12.6 µM [inhibitor, partial curve]. For `Cc1ccsc1C(=O)N1CCC(c2nn(C)c3c2COCC3)CC1`, the Potency was inconclusive: 11.2 µM [inhibitor, partial curve, poor fit]. With `N#CC(=C1Nc2ccccc2S1)c1ccnc(OCc2ccc(CN3CCOCC3)cc2)n1` the Potency was inconclusive: 0.857 µM [inhibitor, full curve]. With `COc1ccc(-c2cc(N3CCCN(C(=O)C4(c5ccc(OC)cc5)CC4)CC3)n[nH]2)cc1` the “activity change, negative = inhibition” value was inactive: -37.2%. For `CN1C(=O)C(CC(=O)Nc2cccnc2)=C2CCCCC21` (stereo not given), the Potency was inconclusive: 5.01 µM [inhibitor, partial curve, poor fit]. In the case of `O=C(Cn1ccn2nc3c(c2c1=O)CCCC3)NC1CCCC1`, the “activity change, negative = inhibition” value is reported as inactive: -6.62%. In the case of `Cc1cccc(N2CCN(C(=O)c3cccn3-c3nnc(N4CCCCC4)s3)CC2)c1C`, the Potency is reported as inconclusive: 15.8 µM [inhibitor, single point]. In the case of `O=C(NCC1CC1)C1(CCO)CCN(c2ncccn2)C1` (stereo not given), the “activity change, negative = inhibition” value is reported as inactive: -11.5%. With `Cc1ccc(Cl)cc1N1CCN(C(=O)c2nn(C)c3c2CS(=O)(=O)c2ccccc2-3)CC1` the Potency was inconclusive: 20 µM [inhibitor, single point]. For `CCc1ccc(Nc2nnc(-c3cc4cc(OC)ccc4oc3=O)s2)cc1`, the “activity change, negative = inhibition” value was inactive: 8.96%. For `Cc1ccc(NC(=O)c2c(C)oc3ccc(O)c(CN(C)Cc4ccccc4)c23)c(C)c1`, the Potency was inconclusive: 28.2 µM [inhibitor, partial curve]. With `CC(=O)N1CCCN(C(=O)c2ccc3c(c2)NC(C)(COc2cccnc2)CO3)CC1` (stereo not given) the Potency was inconclusive: 28.2 µM [inhibitor, single point]. In the case of `OC[C@@H]1CNC[C@H]1C1CCN(Cc2ccc(F)c(Br)c2)CC1`, the “activity change, negative = inhibition” value is reported as inactive: 13.8%. With `Cc1cc(C)c(CNC(=O)c2nc(-c3cccc(C(F)(F)F)c3)cc3[nH]ccc23)c(=O)[nH]1` the Potency was inconclusive: 17.8 µM [inhibitor, single point]. In the case of `O=C1COc2ccc(Nc3ccc(Cl)cc3)nc2CN1Cc1nc2ccccc2s1`, the Potency is reported as inconclusive: 39.8 µM [inhibitor, partial curve, poor fit]. In the case of `Cc1ccccc1C(=O)Nc1nnc(S(=O)(=O)N(C)c2ccc(Cl)cc2)s1`, the Potency is reported as inconclusive: 35.5 µM [inhibitor, single point]. In the case of `O=C(c1ccc(-c2cncnc2)cc1)N1CCC(N[S+](=O)([O-])c2cccc(C(F)(F)F)c2)CC1`, the Potency is reported as inconclusive: 2.82 µM [inhibitor, full curve, poor fit]. With `Cc1noc(C)c1S(=O)(=O)NC1CCN(C(=O)N2CC3CC(C2)[C@H]2CCCC(=O)N2C3)CC1` (stereo not given in full) the Potency was inconclusive: 1.41 µM [inhibitor, full curve, poor fit]. With `COc1cc(NC(=O)C(NS(=O)(=O)c2ccc3c(c2)CCCC(=O)N3)C(C)C)cc(OC)c1` (stereo not given) the Potency was inconclusive: 3.55 µM [inhibitor, single point]. With `O=C(NCc1ccc(F)cc1)[C@H]1CN(Cc2ccccc2)C[C@H]1C(=O)O` the Potency was inconclusive: 17.8 µM [inhibitor, partial curve]. With `COc1ccc(N2C(=O)CCSC23C(=O)N(Cc2ccc(F)cc2)c2ccccc23)cc1` (stereo not given) the Potency was inconclusive: 31.6 µM [inhibitor, single point]. With `Cc1nc2ccc(S(=O)(=O)NC(C(=O)N3CCN(c4cccc(Cl)c4)CC3)C(C)C)cc2s1` (stereo not given) the Potency was inconclusive: 12.6 µM [inhibitor, single point]. With `O=C1N(C2CCN(C3CCC3)CC2)C(c2ccncc2)C12CCCCC2` (stereo not given) the Potency was inconclusive: 28.2 µM [inhibitor, partial curve, poor fit]. In the case of `CCN1c2cc(C(=O)Nc3cccc(Br)c3)ccc2C(=O)N2CCCCCC21` (stereo not given), the Potency is reported as inconclusive: 39.8 µM [inhibitor, single point]. For `Cn1c(=O)oc2cc(S(=O)(=O)N3CCc4c(nc[nH]c4=O)C3)ccc21`, the “activity change, negative = inhibition” value was inactive: 4.56%. In the case of `Cc1ccc2occ(CC(=O)Nc3ccc(Cl)c(C(F)(F)F)c3)c2c1`, the Potency is reported as inconclusive: 11.2 µM [inhibitor, partial curve, poor fit]. For `CC(C)C[C@@H]1N[C@H](C(=O)NCc2ccco2)Cc2c[nH]c3cccc1c23`, the Potency was inconclusive: 56.2 µM [inhibitor, single point]. With `O=C(c1ccc2nccn2c1)N1CCN(c2cnccn2)CC1` the Potency was inconclusive: 1 µM [inhibitor, partial curve, poor fit]. In the case of `CCCNC(=O)N1CCC(Oc2ccccc2-c2nc(-c3ccncc3)no2)C1` (stereo not given), the “activity change, negative = inhibition” value is reported as inactive: 38.7%. With `O=C(NCCc1cscn1)c1cccc(S(=O)(=O)NC[C@@H]2CCCO2)c1` the Potency was inconclusive: 1.78 µM [inhibitor, partial curve, poor fit]. For `CCOC(=O)Cn1c(=O)oc2cc(S(=O)(=O)NC(C)c3ccccc3)ccc21` (stereo not given), the Potency was inconclusive: 39.8 µM [inhibitor, single point]. With `COC(=O)c1nc2n(n1)C(c1cc(OC)ccc1OC)C=C(c1ccc(Br)cc1)N2` (stereo not given) the Potency was inconclusive: 39.8 µM [inhibitor, single point]. For `O=C(COc1ccccc1)N1CCOCC12CCN(Cc1ccccc1)CC2`, the Potency was inconclusive: 56.2 µM [inhibitor, single point].
